The results in this text go back to the RNAGym collection of RNA variant scans (doi:10.7554/elife.90254).

The source gives no read counts; variants with many changes may rest on few reads.

B1: LINE1-mini (parent)
chain: GGCAGAGCUCAACACAGCGUGGCAAAGUGGCUGUGGCUAGACUGCC

The variants in this data set derive from B1. The data set is described as follows: self-cleavage, relative activity (ratio to wild type); higher = more cleavage; in vitro, sequencing; the parent is a self-cleaving ribozyme.
G2A C15A G19A U34C: the self-cleavage turned out to be 0.21. Regarding G2A A16U C37U, the self-cleavage was 0.23.

Take G2A A26G G30U U38A C46U: the self-cleavage is 0.13. Take G1U G2U A4C A16C G27U: the self-cleavage came out at 0.04. Consider G2A C13U A16U, for which the self-cleavage worked out at 0.32. For G1U G7U C18U the value was 0.02; for G2A A4C G5A C23U U32A C37U, 0.04. In the case of G1U G21U U38G it was 0.03; in that of G2A C3G A25U U38A, 2.14. For G1U G2U C13U G27U U38C the value was 0.01; for G2A A25C G35A U38G A39G, 0.1. Take G1U G21C C23A U38A: the self-cleavage worked out at 0.14.

As to G1U U20C G33U, the self-cleavage was 0.07. With G1U C18G A24U G27U U38C, the self-cleavage amounted to 0.01. Consider G1U G33U G40C A41C, for which the self-cleavage amounted to 0.01. With G2A A4C A25C G33U C45U, the self-cleavage turned out to be 0.01. For G2A A11C C15A C18A U38G, the self-cleavage was found to be 0.02. With G2A A6C G21U G27U, the self-cleavage came to 1.71. With G2A A12C G19A C42G, the self-cleavage is 0.02. For G1U G2C A4C U9A G17C G19C the value was 0.25. For the variant G1U G5C A12G C45G, the self-cleavage turned out to be 0. In the case of G2A A16U G35C G40U it was 0.13; in that of G2A C8U C13A G22C U32G U38A, 0.02; in that of G2A A16G G40C C46A, 0.05.

For the variant G1U G5U U9C A14G, the self-cleavage was 0.01. In the case of G2A A16G G33A C45A, the self-cleavage stood at 0.04. Consider G2A C8U G22U C46A, for which the self-cleavage came to 0.18. Take G2A C10A G27C C31G A39G: the self-cleavage is 0.02. For G2A C8U G35C the value was 0.17.

With G2A C10A G40U, the self-cleavage worked out at 0.02. For G1U C18U G40C, the self-cleavage was found to be 0.01. For G2A C10U A14C C23U G35U, the self-cleavage turned out to be 0.02.

Regarding G1U C31U G40U G44U, the self-cleavage was 0.01. For G2A A26G C37G, the self-cleavage came to 0.11.

For the variant G2A A14G G19C G21A C37G, the self-cleavage was 0.03. Consider G2A C3A G5U C10G G22C A24G, for which the self-cleavage turned out to be 0.02. In the case of G1U G7A G44C it was 0.06; in that of G1U U9A G29A, 0.02.

In the case of G1U C18G U43A, the self-cleavage was 0.02. G2A A14G U28G G30A C42A: the self-cleavage was found to be 0.01.

On to G1U G22U G44A, for which the self-cleavage amounted to 0.07. With G1U G36C G40C, the self-cleavage is 0.06.

In the case of G2A A11G A24C, the self-cleavage came to 0.01.

On to G2A C8A A14C C15U G17A G22C A24C C46G, for which the self-cleavage turned out to be 0.21. In the case of G1U G2U U20A U28A G30C G33A it was 0.01; in that of G1U G5C C23G, 0.04; in that of G1U G5U G40U, 0.02. G1U G7C U9C A24G C37A: the self-cleavage turned out to be 0.06.

With G2A C8G A11U G27U, the self-cleavage turned out to be 0.02.

For the variant G1U C13U U34A C42G, the self-cleavage was 0.01. Take G2A C3G A39G: the self-cleavage came to 0.2. With G1U G35U A39G, the self-cleavage is 0.03.

On to G1U G30A G44C, for which the self-cleavage came to 0.27. Turning to G1U C15U A16U G29A C31U, the self-cleavage is 0.04. In the case of G2A A14C U34A C37U it was 0.02; in that of G1U G5U C18A, 0.06. For the variant G1U G5C C10G G30U G36U, the self-cleavage was 0.01. Turning to G1U G2U G7U A16U G33A, the self-cleavage was found to be 0.08. G2A A6C C10U C23U A41U: the self-cleavage is 0.05. With G2A C10G A11G C15A G17A A26U C37G U38A, the self-cleavage came to 0.01. As for G2A C3G C8U G36U U38G, the self-cleavage stood at 1.01. On to G1U G17C C37A, for which the self-cleavage was 0.08. As for G2A C3A G44C, the self-cleavage stood at 3. Take G1U G21C C37A G40C: the self-cleavage worked out at 0.02. Turning to G1U G2C U38C C42A, the self-cleavage turned out to be 0.04. In the case of G1U G7U A11C it was 0; in that of G1U G5A A11C, 0.02. For G2A C13U G30C G44A the value was 0.1.

For the variant G2A C3G G7U A14C C18U A24U C45U, the self-cleavage was determined as 0.1. For G2A A4U G19U, the self-cleavage is 0.29. Consider G1U C31G G35A, for which the self-cleavage stood at 0.01. For G1U G2U U28G the value was 0.03; for G1U C23A A25U G44A, 0.09; for G2A C15U U20A, 0.37. In the case of G2A A12C A14C G17C U34A G36U U38A, the self-cleavage is 0. As for G1U G5U C31G C46A, the self-cleavage amounted to 0.03. For G1U G21U G33C the value was 0.01; for G2A A26U G30U, 0.4; for G2A C3A G19A G29A U43C, 2.13. For G2A A26U C37U, the self-cleavage is 0.68. On to G1U G19A C31U G33C, for which the self-cleavage amounted to 0.02. Consider G1U C15A G19U G33A C37A C42G G44A, for which the self-cleavage is 0. With G2A A25G A26G G35C, the self-cleavage worked out at 0.07.

Turning to G2A A12C G35U, the self-cleavage was 0.05. For the variant G1U C23A A26G, the self-cleavage stood at 0.23. As to G2A A12G A14C C15U G17A G22C, the self-cleavage came to 0.02.

For G1U G5U A16G A24U, the self-cleavage is 0.03. Consider G1U U9C G21U C23G G36C G40A A41U, for which the self-cleavage was determined as 0.01. In the case of G1U G5C C18U G21U it was 0.01; in that of G2A A4U C13A G30A, 0.29; in that of G2A C8G C42G U43A, 0.13.

As to G1U C13U G36U, the self-cleavage was determined as 0.14. Regarding G2A C3U U9G A14C, the self-cleavage was found to be 0.11. With G1U G21C G33C G35U C45G, the self-cleavage worked out at 0.02.

Regarding G1U G22A A25C G44C, the self-cleavage worked out at 0.7. G1U G7C A11C G17A G33C U34C G36C G44U: the self-cleavage is 0. In the case of G1U G7A G19U G29C it was 0.11; in that of G1U U28A U34G G36C C37A C45U, 0; in that of G2A C15A G30A A41G C45G, 0.26. On to G2A C15G G22C U43A C45G, for which the self-cleavage amounted to 0.02. On to G1U G33U C42U C46U, for which the self-cleavage came out at 0.06. As to G2A C3A C8G U9A U32A, the self-cleavage came to 0.69. With G1U G5C C15U U34C, the self-cleavage came to 0.08. For G2A A6G C8A A24C A25U G30U the value was 0.02. For the variant G1U G29C C31G, the self-cleavage was 0.12. Take G1U G27U U34G A41C: the self-cleavage is 0.01.

Regarding G2A A16C G22C U28A A41U, the self-cleavage was determined as 0.11.

G2A A6U G35A: the self-cleavage was 0.06. Turning to G2A C13A U38A, the self-cleavage stood at 0.42. With G1U U38G C45U, the self-cleavage stood at 0.01. On to G2A C13G C23G C46A, for which the self-cleavage was 0.15. For G2A A4U G27C G29U G40A C45G the value was 0.15.

In the case of G1U C23A G36A, the self-cleavage was 0.07.

Take G2A C13G A26C G30U: the self-cleavage was found to be 0.05.

For G2A C3G C15G G27A, the self-cleavage came to 0.04. Consider G1U G27A A39G A41C C46G, for which the self-cleavage came out at 0. With G2A C8A C13G G35C, the self-cleavage turned out to be 0.23. Take G2A C3U A4G G27C: the self-cleavage is 0.21. On to G1U G27A U43C, for which the self-cleavage stood at 0.05. Regarding G1U U9A G44A, the self-cleavage came out at 0.02. In the case of G2A C8G A25G C46U it was 0.21; in that of G2A A12C C18A, 0.07. On to G1U U20C G40A, for which the self-cleavage came out at 0.03. Turning to G1U G5U A6U C8A G33C, the self-cleavage amounted to 0.15. For G2A C15G A24C G29U C31G the value was 0.02.

On to G1U C15G C31A, for which the self-cleavage worked out at 0.02. In the case of G1U G21U C42U, the self-cleavage is 0.26. In the case of G1U G21U C42G, the self-cleavage is 0.03.

Consider G1U G21A A39G, for which the self-cleavage is 0.06. Consider G2A A6G A26C, for which the self-cleavage was determined as 0.21. On to G1U U9A U20A G30U G33U, for which the self-cleavage was 0. As for G2A C15U G22C A39C, the self-cleavage was found to be 0.3. Consider G1U G27U U28G G40U, for which the self-cleavage was 0.04. Turning to G1U G29U G36A, the self-cleavage worked out at 0.27.

Turning to G2A A12G G17U U28G U38A, the self-cleavage is 0.1. Take G1U G22U A26G: the self-cleavage was determined as 0.23. Consider G2A A11C G19C C23G A25C G27U U32A G33A, for which the self-cleavage was determined as 0.03. In the case of G1U G5C U38G it was 0.11. As to G1U G5A G40U C45U, the self-cleavage was determined as 0.05. In the case of G2A A12C C13A, the self-cleavage was determined as 0.11. For G2A C10A G19U C31A G35U the value was 0.02; for G1U C15A A25G C37G, 0.04. In the case of G2A C3A A11C U32A U38A, the self-cleavage was determined as 0.05. G2A A4C C8A A16C G17U G21A U34G C45G: the self-cleavage was found to be 0.17.

Regarding G1U G7U A16U G30U G44A, the self-cleavage was determined as 0.05.

G2A C3U U9C: the self-cleavage came out at 0.03. For G2A A6U U20C G27U G40A the value was 0.1; for G1U G5C C13G C31A, 0.05. For the variant G2A C3U A6U U38C, the self-cleavage was 0.45. G2A A25G U43A: the self-cleavage turned out to be 0.53. For G1U U9C U34G the value was 0. On to G2A C10G G21A G30C U38C G40U, for which the self-cleavage came out at 0.01. G1U G7U A24C: the self-cleavage turned out to be 0.03. Turning to G2A C13U C31A A41C C42A, the self-cleavage was determined as 0.32. For the variant G2A A11C G27U G35U, the self-cleavage came out at 0.01. In the case of G1U U28G U34A C45G it was 0.06; in that of G2A A14C G30A C42A U43C G44C, 0.13; in that of G2A A11U U34A G40A G44A, 0.03. On to G1U G2U G5U A14U G22U C42A, for which the self-cleavage is 0. For G2A C3A A6C A11C A12U C13U C23U C37A G40A, the self-cleavage came to 0.04. Turning to G2A C13A G29U G36A G44C, the self-cleavage amounted to 2.26.

As to G1U G21U C23A, the self-cleavage was 0.2. Regarding G2A A12U A14U G19A, the self-cleavage is 0.04. Consider G1U G40A C42U, for which the self-cleavage stood at 0.03. For G2A C8U A14G A25C G36C, the self-cleavage stood at 0.13. In the case of G2A A11C G22A G29U U32A G44U, the self-cleavage is 0.01. Turning to G2A C13G U32G C37A, the self-cleavage is 0.04.
